# Data as given in the supplement of paper PMC4166925.
# ± gives the standard deviation of the averaged measurements. Over roughly 33,000 sequences, “E-score (dimensionless, -0.5 to 0.5)” has its median near -0.049; the highest 2% begin near 0.37. This is one part of the list.
# Test system: T1, PmTbr T-box DNA-binding domain (GST fusion)
# T1 sequence: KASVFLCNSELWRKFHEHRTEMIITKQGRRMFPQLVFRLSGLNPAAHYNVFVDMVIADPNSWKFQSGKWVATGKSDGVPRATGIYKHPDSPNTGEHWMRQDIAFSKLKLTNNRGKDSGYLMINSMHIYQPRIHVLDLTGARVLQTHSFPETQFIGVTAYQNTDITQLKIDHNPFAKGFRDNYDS
# Test: PBM E-score of 8-mer (E-score (dimensionless, -0.5 to 0.5)); Tbr is Tbrain of the sea star Patiria miniata (Pm) or the sea urchin Strongylocentrotus purpuratus (Sp); higher = stronger binding preference; most listed sequences are background and not binding sites
# Settings: the construct has about 5 more residues each side
# Procedure, shortened: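 Each ungapped 8-mer received an enrichment E-score from the Universal PBM Analysis Suite, averaged over duplicate arrays. The proteins were Tbr T-box DNA-binding domains, covering the whole T-box plus about five flanking residues, fused to GST and expressed in BL21 E. coli at 20 °C before glutathione affinity purification. Universal Agilent oligonucleotide arrays were made double-stranded by primer extension and incubated with 200 nM protein in PBS (pH 7.5). The arrays were then scanned and quantified, and every 8-mer was scored from probe intensities.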
row,Sequence,PBM E-score of 8-mer
1,CAAAGGCG,0.148 ± 0.013
2,ATTGTGAA,0.225 ± 0.042
3,CGGACCGA,-0.17 ± 0.007
4,CCTTAAAC,-0.07 ± 0.037
5,ACCTCACA,0.423 ± 0.0099
6,CACCGCGG,0.0859 ± 0.036
7,ACCTCGAG,0.163 ± 0.13
8,CATTATTA,-0.0445 ± 0.0018
9,CCCTTGAA,-0.392 ± 0.075
10,ATCCACCG,-0.2934 ± 0.00052
11,ACCGCTAT,0.0197 ± 0.06
12,TAAGGAGA,-0.296 ± 0.025
13,ATTTGTGC,-0.118 ± 0.014
14,CCACCTGG,0.252 ± 0.0058
15,CGTGGTAA,0.0635 ± 0.013
16,ATGTTTCG,0.00583 ± 0.037
17,GCAATGCA,-0.0122 ± 0.027
18,AGAGCCTG,-0.0676 ± 0.041
19,ACTGGTTG,0.102 ± 0.0037
20,AGTCAGAC,-0.0902 ± 0.076
21,GAAAATGC,-0.231 ± 0.0041
22,CAGATACC,-0.254 ± 0.086
23,AGCCGATC,-0.156 ± 0.069
24,CCTATCAG,-0.0223 ± 0.0044
25,ATCAACGG,-0.182 ± 0.042

row,Sequence,PBM E-score of 8-mer
1,GCCAGCGC,0.125 ± 0.076
2,AACCCCTA,-0.151 ± 0.035
3,TCTAAGAA,-0.239 ± 0.028
4,ACAATTAC,0.0489 ± 0.039
5,AGACCGCG,0.0594 ± 0.031
6,ACTCGTAG,0.00758 ± 0.076
7,AGAGATAG,-0.137 ± 0.024
8,GCCGGGCA,-0.204 ± 0.13
9,ATACTTGA,-0.0949 ± 0.046
10,AAGGTACG,-0.0456 ± 0.094
11,ACTTTGGG,-0.151 ± 0.075
12,CAGACTGC,-0.0353 ± 0.073
13,GTGAATGA,0.109 ± 0.0043
14,ATTCCCGA,-0.158 ± 0.071
15,ACGTTTAC,0.0596 ± 0.021
16,CATACACA,-0.0494 ± 0.036
17,AATTAAAA,-0.207 ± 0.11
18,TGTTTTAA,-0.0151 ± 0.098
19,CGAATGGA,-0.149 ± 0.025
20,AATGAATG,0.0321 ± 0.038
21,CCTCGGTC,0.0608 ± 0.12
22,CATTAGAG,-0.0379 ± 0.085
23,CTTAGAAC,-0.112 ± 0.098
24,AGACTCAA,-0.22 ± 0.045
25,CTAAAACA,0.0999 ± 0.053

row,Sequence,PBM E-score of 8-mer
1,ATGTCGAA,-0.0919 ± 0.073
2,CATCCGGA,-0.319 ± 0.037
3,ACCCACCA,-0.195 ± 0.069
4,TACACTCA,-0.0251 ± 0.036
5,GGGGCGGA,-0.405 ± 0.031
6,AGTAGTCC,-0.278 ± 0.058
7,ACCACGAT,0.0473 ± 0.013
8,GCTCGTGA,0.237 ± 0.058
9,CTCTAGTA,-0.239 ± 0.0091
10,AATTCTTC,-0.162 ± 0.064
11,CTCTAACA,0.162 ± 0.0073
12,CATTCTGG,-0.157 ± 0.11
13,CTGAAGGA,-0.225 ± 0.0061
14,AAGTGGCG,0.3473 ± 0.0029
15,CGATATGC,-0.0897 ± 0.0075
16,CATTACAC,0.247 ± 0.007
17,GGTTCTAA,-0.136 ± 0.047
18,CCTCTTTC,-0.072 ± 0.095
19,CAGTTTGG,0.0673 ± 0.027
20,GCGTGAGC,0.203 ± 0.06
21,GTCCACCA,-0.19 ± 0.007
22,AAATGCTG,-0.134 ± 0.038
23,AGCGATGG,0.102 ± 0.0073
24,CTGGCCGC,-0.252 ± 0.018
25,CTCAGTAA,-0.147 ± 0.068

row,Sequence,PBM E-score of 8-mer
1,GAATAAGA,-0.0898 ± 0.037
2,CTTGGTGA,0.12 ± 0.032
3,CCTGAGTA,-0.144 ± 0.013
4,AATTAAGC,-0.186 ± 0.0037
5,AACTATGC,0.0396 ± 0.064
6,CTTTAACC,-0.195 ± 0.048
7,ACGTTGAG,0.069 ± 0.0054
8,AAGCCAAA,-0.189 ± 0.018
9,CCGGAAGG,-0.171 ± 0.089
10,TAGAATAA,-0.216 ± 0.027
11,CATAGCCC,-0.0326 ± 0.025
12,ATAAACTG,-0.0165 ± 0.079
13,AAATTATA,-0.13 ± 0.066
14,CATCTGGC,-0.073 ± 0.018
15,CATTTCGA,0.0104 ± 0.03
16,TCATTGAA,-0.0959 ± 0.0025
17,GAGCGGGA,0.0084 ± 0.033
18,CTGGAATC,-0.132 ± 0.092
19,CACAGGCC,-0.0903 ± 0.017
20,GGGCACAC,0.0773 ± 0.041
21,ACCCTTTA,0.035 ± 0.043
22,ACGGCAAA,-0.245 ± 0.047
23,AGCCCCCC,-0.112 ± 0.046
24,CAATATCG,0.06478 ± 0.00031
25,ATTATAAG,-0.2289 ± 0.00032

row,Sequence,PBM E-score of 8-mer
1,GCTTAGGA,-0.125 ± 0.036
2,CCATTACA,0.0321 ± 0.063
3,CGGAGCCA,-0.179 ± 0.091
4,GAGGGCAC,-0.113 ± 0.017
5,CATCGTGC,-0.0291 ± 0.084
6,CCTATGCG,0.137 ± 0.023
7,AACCGTCG,0.0733 ± 0.046
8,ATCCCGCA,-0.0983 ± 0.014
9,GTCCTTGA,-0.206 ± 0.0022
10,AAAAGCGA,0.0236 ± 0.086
11,AACCCCCC,-0.201 ± 0.06
12,ATGCCCCC,-0.293 ± 0.065
13,CGCAGAGC,-0.0402 ± 0.014
14,CTAACTGC,0.131 ± 0.0079
15,GCATCTTA,-0.138 ± 0.037
16,ACCTACAG,0.212 ± 0.072
17,CTCCGTGA,0.0763 ± 0.078
18,CATCAAGG,-0.125 ± 0.024
19,GTACTAAC,-0.0106 ± 0.075
20,CCAATTAC,-0.0328 ± 0.018
21,AATGGTAG,0.0269 ± 0.039
22,GACCACAA,-0.103 ± 0.095
23,GTCGCTGA,0.111 ± 0.071
24,ACATACAG,0.0863 ± 0.053
25,GAGACTAC,-0.227 ± 0.069

row,Sequence,PBM E-score of 8-mer
1,CCGAAAAC,-0.165 ± 0.035
2,AAGACTGA,-0.145 ± 0.0051
3,ATTGACCC,-0.0187 ± 0.017
4,ACTCAACG,-0.122 ± 0.033
5,ACTTAAGG,-0.0457 ± 0.01
6,ACGGCGCT,0.187 ± 0.094
7,ATAGGTGG,0.26 ± 0.051
8,GGGGCCCA,-0.101 ± 0.011
9,CAAATCAG,-0.038 ± 0.029
10,TACGACGA,0.0232 ± 0.034
11,GGCTCATA,-0.172 ± 0.078
12,CATTCCGA,0.102 ± 0.028
13,CTGATAGC,0.0709 ± 0.043
14,CCTAAATA,-0.143 ± 0.023
15,AGCACCTC,0.4279 ± 0.0012
16,ACCCCAAA,-0.102 ± 0.055
17,ATATTTCA,0.133 ± 0.071
18,AACAAGGG,-0.0471 ± 0.065
19,AAACAAAC,-0.235 ± 0.068
20,AAGATCTG,-0.162 ± 0.066
21,CTCCCAAA,-0.105 ± 0.0091
22,CGCATCAA,-0.0871 ± 0.16
23,AAAATGGT,0.0989 ± 0.048
24,ATGTCCTA,-0.284 ± 0.056
25,ACATCCCT,-0.0937 ± 0.058

row,Sequence,PBM E-score of 8-mer
1,TGTAGGAA,-0.0534 ± 0.022
2,CACGTCCC,0.156 ± 0.047
3,AGGTTGAA,-0.273 ± 0.056
4,AAGAGCTG,-0.00496 ± 0.016
5,AAATACCG,-0.139 ± 0.013
6,AGGCCCAA,-0.224 ± 0.0036
7,TTATAGAA,-0.218 ± 0.075
8,CGCCACAG,0.0395 ± 0.054
9,CCGAAATA,0.0155 ± 0.026
10,CCTGTTTC,-0.145 ± 0.032
11,ATTGAAAG,-0.139 ± 0.056
12,AGCAGTCA,0.00374 ± 0.013
13,ACTTTTGG,0.0502 ± 0.058
14,AAACCGTG,0.137 ± 0.07
15,CCTGCAGC,-0.113 ± 0.099
16,CCGTTACA,-0.0148 ± 0.054
17,GCCGCATA,-0.00303 ± 0.028
18,TATCCATA,-0.278 ± 0.055
19,TGCCAACA,0.326 ± 0.011
20,TATCGGGA,-0.00353 ± 0.05
21,AGTTAGTG,0.139 ± 0.029
22,AAATAGAT,-0.277 ± 0.042
